According to PubChem BioAssay AID1345083 (National Center for Advancing Translational Sciences (NCATS), 2018):
The campaign covered roughly 94,000 compounds. About 6,200 (6.6%) were called active. The inconclusive results got no clear call from the source; some entries with a clear call stand among them for comparison. Calls follow the shape of the dose curve; as a rule, active = well fitted inhibition curve with a large enough effect; inconclusive = small, poorly fitted or top-dose-only effect; inactive = flat fitted curve, though single readings scatter. Where the call is inconclusive, the potency comes from a doubtful curve fit.

Test: Cytotoxic Profiling in HEK 293 Cell Line of Diverse Libraries Using Quantitative High-Throughput Screening; also: nearly all actives have a fitted effect of over 60% in size
Settings: HEK 293 viability, ATP luminescence (CellTiter-Glo), 48-72 h; series mostly up to 115 µM; activity change, negative = cytotoxicity: at the top concentration
Outline: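 qHTS cytotoxicity; HEK 293, 250 cells/well; compound pinned; 48 or 72 hr, 37 degree Celsius, 5% CO2, 95% humidity; CellTiter-Glo, 10 min RT; luminescence (ATP).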
% is scaled to controls: 0 for no effect and ±100 for the full control effect; potency is read from the fitted curve at half-maximal effect; tags tell the direction and shape of the fitted curve.

SMILES	Potency	activity change, negative = cytotoxicity	outcome
COc1cc2c(cc1OCc1ccccc1)NC(=O)C21CCN(Cc2ccccc2)CC1	active: 31.6 µM		
Cc1ccc(C(=O)NC[C@H]2C[C@@H]3CCN2C[C@@H]3c2cc(-c3cccs3)nc(C)n2)cc1	inconclusive: 22.4 µM [inhibitor, full curve, poor fit]		
COCC(=O)N1[C@H]2CC[C@@H]1c1cnc(-c3ccccc3)nc1C2		inactive: -4.03%	
CCOC(=O)[C@H]1CN(C(=O)COc2ccccc2)[C@]2(C)C(=O)Nc3ccccc3[C@H]12	inconclusive: 35.5 µM [inhibitor, partial curve, poor fit]		
COc1cc2c(cc1OCc1ccccc1)N([S+](=O)([O-])c1ccc3c(c1)CCO3)CC21CCN(C)CC1	inconclusive: 44.7 µM [inhibitor, partial curve, poor fit]		
COc1ccc([S+](=O)([O-])N2CC3(CCN(CC(=O)O)CC3)c3cc(OC)c(OCC4CCCC4)cc32)cc1	inconclusive: 89.1 µM [inhibitor, single point]		
O=C(NCC1CC1)c1cn(C2CNC2)nn1		inactive: -9.93%	
COc1ccc2c(c1)C1(CCN(S(=O)(=O)c3cccc(F)c3)C1)C(=O)N2C (centres undefined)	active: 44.7 µM		
O=C(c1ccc2c(c1)OCO2)N1[C@H]2CC[C@@H]1c1cnc(-c3ccccc3)nc1C2	inconclusive: 50.1 µM [inhibitor, partial curve, poor fit]		
CS(=O)(=O)N1C[C@H]2CCNC[C@H]21		inactive: 4.34%	
O=C(O)C1CC2(CCN(C(=O)CCc3ccncc3)CC2)CN1 (centres undefined)		inactive: -12.9%	
Cc1cc(C(=O)NCc2c(C)ncc3c2CCNC3)n[nH]1		inactive: -1.79%	
Cc1ncc2c(n1)C[C@@H]1CC[C@H]2N1C(=O)c1ccccn1		inactive: -3.35%	
COc1ccccc1CNC(=O)[C@H]1CN2CCC1C[C@@H]2Cn1cc(C(C)(C)O)nn1 (some centres undefined)		inactive: 1.37% [at 172 µM]	
FC(F)(F)CN1C2CCC1CN(c1cccc(Cl)n1)C2			inactive
O=C1NC2(CCCN(Cc3ccccn3)C2)COc2ccccc21 (centres undefined)	inconclusive: 11.2 µM [inhibitor, partial curve, poor fit]		
C#C[C@H]1CN2CC[C@H]1C[C@@H]2COC(=O)NCCC	inconclusive: 141 µM [inhibitor, single point]		
O=C(c1ccoc1)N1[C@H]2CC[C@@H]1c1cnc(-c3ccccc3)nc1C2	inconclusive: 44.7 µM [inhibitor, partial curve, poor fit]		
COc1ccc(NC(=O)OC[C@H]2C[C@@H]3CCN2C[C@@H]3c2cc(-c3ccccc3OC)nn2C)cc1		inactive: -23.8%	
CC(C)CCN1CCCC2(CC(c3ccccn3)=NO2)C1 (centres undefined)		inactive: -11.8% [at 172 µM]	
CCC(CC)c1cc([C@H]2CN3CC[C@H]2C[C@@H]3CNC(=O)c2cccs2)nc(-c2ccncc2)n1	inconclusive: 22.4 µM [inhibitor, full curve, poor fit]		
C#C[C@H]1CN2CC[C@H]1C[C@@H]2CNC(=O)Nc1ccc(Oc2ccccc2)cc1	active: 39.8 µM		
CCn1ccc(C(=O)N2[C@H]3CC[C@@H]2c2cnc(-c4ccc(F)cc4)nc2C3)n1	inconclusive: 79.4 µM [inhibitor, partial curve, poor fit]		

SMILES	Potency	activity change, negative = cytotoxicity	outcome
COC[C@H]1CCCN1C[C@H]1CN2CC[C@H]1C[C@@H]2CN			inactive [at 230 µM]
CC(C)(O)c1cn(C[C@H]2CC3CCN2C[C@@H]3C(=O)NC2CCCCC2)nn1 (some centres undefined)		inactive: -4.66% [at 172 µM]	
CSc1cccc(NC(=O)NC[C@H]2C[C@@H]3CCN2C[C@@H]3CN2CCC(Cc3ccccc3)CC2)c1	inconclusive: 20 µM [inhibitor, full curve, poor fit]		
COc1ccc(-c2cc([C@H]3CN4CC[C@H]3C[C@@H]4COC(=O)Nc3ccccc3)n(C)n2)cc1	inconclusive: 20 µM [inhibitor, full curve, poor fit]		
N#Cc1cccc(-c2ccc(=O)n3c2[C@@H]2C[C@@H](CN(C(=O)Nc4ccccc4)C2)C3)c1			inactive [at 172 µM]
Cc1noc(C)c1-c1cnc2[nH]cc(CC(=O)N3CCN(C)CC3)c2c1	inconclusive: 100 µM [inhibitor, partial curve]		
COCC(=O)N1CCC2(CC1)C(=O)Nc1cc(Oc3ccccc3)c(OC)cc12	inconclusive: 100 µM [inhibitor, partial curve, poor fit]		
Nc1ncccc1CN1C[C@H](c2ccc3c(c2)OCO3)[C@@H]2[C@H]1C1CCN2CC1		inactive: -0.19%	
COc1cc2c(cc1Oc1ccccc1)NC(=O)C21CCN(C(=O)Cc2ccccc2)CC1	active: 39.8 µM		
FC(F)(F)CN1C2CCC1CN(c1nccs1)C2		inactive: -23.5% [at 172 µM]	
COc1ccc(S(=O)(=O)NC[C@H]2C[C@@H]3CCN2C[C@@H]3CN2CCOCC2)cc1		inactive: 0.248% [at 172 µM]	
O=C(Cc1ccc(Cl)cc1)N1CCCN(CCn2nc3n(c2=O)CCCC3)CC1		inactive: 0.495%	
CCNC(=O)NC[C@H]1C[C@@H]2CCN1C[C@@H]2c1cc(-c2ccc(N(C)C)cc2)nc(C)n1	active: 100 µM		
CC(C)NC(=O)OC[C@H]1C[C@@H]2CCN1C[C@@H]2c1cc(C2CCCCC2)nn1C	inconclusive: 126 µM [inhibitor, single point]		
CCCNC(=O)OC[C@H]1C[C@@H]2CCN1C[C@@H]2c1cc(-c2ccccc2OC)nn1C	inconclusive: 126 µM [inhibitor, single point]		
O=C(Nc1ccc(=O)n2c1[C@@H]1C[C@@H](CN(C(=O)Nc3ccc(F)cc3)C1)C2)c1ccco1		inactive: -24.7%	
COc1ccc(NC(=O)NC[C@H]2C[C@@H]3CCN2C[C@@H]3c2cc(C3CCCC3)nn2C)cc1	inconclusive: 39.8 µM [inhibitor, partial curve, poor fit]		
Cn1nccc1CN1CCCC2(CC(c3cccnc3)=NO2)C1 (centres undefined)		inactive: 0.203%	
Cn1nc(-c2ccc(F)cc2)cc1[C@H]1CN2CC[C@H]1C[C@@H]2CNC(=O)COc1ccccc1	inconclusive: 50.1 µM [inhibitor, partial curve, poor fit]		
CN(C)Cc1ccccc1-c1ccc2n(c1=O)C[C@H]1C[C@@H]2CN(C(=O)C2CCCCC2)C1		inactive: -3.02% [at 172 µM]	
COC1CCN(CC2CCCCCN2C(=O)Cc2cccc(F)c2)CC1 (centres undefined)		inactive: -31.4%	
C=C[C@H]1CN2CC[C@H]1C[C@@H]2CNS(=O)(=O)c1ccc(OC)cc1		inactive: -7.32% [at 172 µM]	
COc1cccc(S(=O)(=O)N2[C@H]3CC[C@@H]2c2cnc(C)nc2C3)c1			inactive

SMILES	Potency	activity change, negative = cytotoxicity	outcome
COc1cncc(CN2CCC3(CC2)C(=O)Nc2cc(Oc4ccccc4)c(OC)cc23)c1	active: 35.5 µM		
O=C(COc1ccc(F)cc1)N1[C@H]2CC[C@@H]1c1cnc(-c3ccccc3)nc1C2	inconclusive: 50.1 µM [inhibitor, partial curve, poor fit]		
Cc1ccccc1CC(=O)N1CCC2(CC1)c1nccn1-c1ccccc1CN2C		inactive: 1.49%	
CCOC(=O)[C@H]1CN(C(=O)c2ccc(OC)cc2)[C@]2(C)C(=O)N(CC3CC3)c3ccccc3[C@H]12	inconclusive: 28.2 µM [inhibitor, partial curve, poor fit]		
Cc1nc(-c2ccco2)cc([C@H]2CN3CC[C@H]2C[C@@H]3CNC(=O)Nc2ccccc2)n1	active: 89.1 µM		
C#C[C@H]1CN2CC[C@H]1C[C@@H]2CNS(=O)(=O)c1ccc2ccccc2c1	inconclusive: 112 µM [inhibitor, partial curve, poor fit]		
COCC1CN(C)CC12CCN(Cc1cccnc1)CC2 (centres undefined)		inactive: -2.18%	
COc1ccccc1-c1cc([C@H]2CN3CC[C@H]2C[C@@H]3CNC(=O)c2ccco2)n(C)n1		inactive: 4.65% [at 172 µM]	
COc1cc2c(cc1Oc1ccccc1)NC(=O)C21CCN(C(=O)c2cccc(O)c2)CC1	active: 44.7 µM		
COc1ccc(CNC[C@H]2C[C@@H]3CCN2C[C@@H]3c2cc(C3CCCC3)nn2C)cc1		inactive: -27% [at 172 µM]	
CN1CCNc2cc(NCc3ccccc3)ncc2C1	inconclusive: 100 µM [inhibitor, partial curve, poor fit]		
O=C(NC[C@H]1C[C@@H]2CCN1C[C@@H]2CN1CCN(c2ccc(F)cc2)CC1)Nc1ccsc1	active: 79.4 µM		
Cn1nc(-c2ccccc2)cc1[C@H]1CN2CC[C@H]1C[C@@H]2CNC(=O)c1cccs1	inconclusive: 126 µM [inhibitor, partial curve, poor fit]		
COc1ccc(-c2cc3c(cn2)CN(C)CCN3)cc1OC		inactive: -42.9% [at 172 µM]	
COc1ccc2c(c1)C1(CCN(S(=O)(=O)c3cccc(Cl)c3)C1)C(=O)N2C (centres undefined)	inconclusive: 44.7 µM [inhibitor, partial curve, poor fit]		
COc1cc2c(cc1-c1cnn(C)c1)NC(=O)C21CCN(C(C)=O)CC1		inactive: 1.95% [at 172 µM]	
CC[C@H]1CN2CC[C@H]1C[C@@H]2COC(=O)Nc1cccc2ccccc12	inconclusive: 112 µM [inhibitor, partial curve]		
Cc1nc(C)c(C(=O)N2[C@H]3CC[C@@H]2c2cnc(-c4ccccc4)nc2C3)s1	active: 39.8 µM		
CCn1ccc(C(=O)N2CCC3(CC2)c2nccn2-c2ccccc2CN3CC(C)C)n1	active: 44.7 µM		
COc1ccc(C(=O)N2[C@H]3CC[C@@H]2c2cnc(C)nc2C3)c(OC)c1		inactive: -12%	
O=C(COc1ccccc1)N1[C@H]2CC[C@@H]1c1cnc(-c3ccc(F)cc3)nc1C2	inconclusive: 50.1 µM [inhibitor, partial curve, poor fit]		
CCC(CC)c1cc([C@H]2CN3CC[C@H]2C[C@@H]3CNC(=O)c2ccccc2)nc(-c2ccncc2)n1	inconclusive: 89.1 µM [inhibitor, partial curve, poor fit]		
CNCc1cn(C[C@H]2CC3CCN2C[C@@H]3C(=O)NCc2ccccc2)nn1 (some centres undefined)	inconclusive: 126 µM [inhibitor, single point]		
